Source: paper PMC4336329 (PLoS ONE, 2015)
Screen size: about 310,000 compounds; about 2,200 (0.71%) showed an effect of 50% or more. The effect is printed as a negative number. The list shows a part of the results.

What follows are molecules tested against human ether-à-go-go-related gene (hERG) potassium channel (human, UniProt Q12809) (assay: primary screen, population patch clamp on CHO cells stably expressing hERG).
Chain of human ether-à-go-go-related gene (hERG) potassium channel (Q12809 whole entry, looked up): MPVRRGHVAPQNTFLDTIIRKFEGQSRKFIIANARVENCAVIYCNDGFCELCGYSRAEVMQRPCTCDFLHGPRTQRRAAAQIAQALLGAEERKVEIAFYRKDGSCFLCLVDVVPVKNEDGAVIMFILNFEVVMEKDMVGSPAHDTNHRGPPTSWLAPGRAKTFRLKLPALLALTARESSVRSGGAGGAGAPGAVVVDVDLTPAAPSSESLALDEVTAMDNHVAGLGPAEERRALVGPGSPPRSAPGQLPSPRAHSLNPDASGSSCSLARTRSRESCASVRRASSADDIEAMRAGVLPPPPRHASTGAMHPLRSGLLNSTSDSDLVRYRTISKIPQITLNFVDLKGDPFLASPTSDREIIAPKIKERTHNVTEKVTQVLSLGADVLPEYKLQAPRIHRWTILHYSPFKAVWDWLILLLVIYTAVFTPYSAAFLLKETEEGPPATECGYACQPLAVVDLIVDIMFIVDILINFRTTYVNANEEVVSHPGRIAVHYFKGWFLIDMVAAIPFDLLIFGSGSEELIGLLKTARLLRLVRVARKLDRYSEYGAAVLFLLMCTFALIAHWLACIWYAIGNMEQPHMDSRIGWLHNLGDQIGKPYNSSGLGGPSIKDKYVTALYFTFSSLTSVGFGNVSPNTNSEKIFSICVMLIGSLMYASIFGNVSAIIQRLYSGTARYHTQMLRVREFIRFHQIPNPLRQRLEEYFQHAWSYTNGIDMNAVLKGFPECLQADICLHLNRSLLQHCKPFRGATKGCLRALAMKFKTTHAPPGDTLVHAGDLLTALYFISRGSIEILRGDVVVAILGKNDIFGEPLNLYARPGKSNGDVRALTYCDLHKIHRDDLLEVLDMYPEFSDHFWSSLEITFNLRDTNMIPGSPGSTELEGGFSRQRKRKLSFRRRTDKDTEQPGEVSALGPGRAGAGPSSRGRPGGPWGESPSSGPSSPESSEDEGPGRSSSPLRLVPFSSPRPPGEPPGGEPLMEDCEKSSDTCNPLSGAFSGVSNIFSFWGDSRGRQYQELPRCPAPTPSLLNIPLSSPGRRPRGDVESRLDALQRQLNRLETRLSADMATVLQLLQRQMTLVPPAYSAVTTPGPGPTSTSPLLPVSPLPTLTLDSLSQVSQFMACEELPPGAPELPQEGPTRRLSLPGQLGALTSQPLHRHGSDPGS

Point of comparison: Cc1cc2[nH]c(=O)cc(-c3ccccc3)n2n1, “hERG current change (%, negative = inhibition) at 1uM” value 13.4%. Against it:
- Nc1cc(S(=O)(=O)N2CCOCC2)ccc1Oc1ccc(F)cc1 — lower, 10.8%
- Cc1nnc(SCC2=C(C(=O)O)N3C(=O)[C@@H](NC(=O)Cn4cnnn4)[C@H]3SC2)s1 — lower, 7.22%
- Cl.N[C@@H](Cc1c[nH]c2ccccc12)c1nnc(SCc2ccccc2)o1 — lower, 8.51%
- O=C(/C=C/c1cccc([N+](=O)[O-])c1)OC1CCCCC1=O (centres unmarked) — lower, 9.96%
- Nc1c2c(nc3sc4c(c13)CCCC4)CCCC2 — lower, -13.2%
- Cc1cccc(OCC(=O)Nc2ccc(S(=O)(=O)Nc3onc(C)c3C)cc2)c1C — lower, 10.3%
- FC(F)(F)c1cccc(-c2ccc(/C=N/Nc3nncc(-c4ccccc4)n3)o2)c1 — lower, 6.55%
- CCCc1nc(SCC(=O)N2CCC(C)CC2)c2c(=O)n(C)c(=O)n(C)c2n1 — lower, -1.59%
- CCc1ccccc1NC(=O)COc1cccc2ccc(C)nc12 — lower, -18.1%
- Cl.O=C(CN1CCN(c2ncccn2)CC1)Nc1ccccc1-n1cccc1 — lower, 5.61%
- O=C(CCl)NN1C(=O)NC2(CCCCC2)C1=O — lower, 4.73%
- O=C(c1ccc([N+](=O)[O-])cc1)N1CCOC12CCN(c1ncc(C(F)(F)F)cc1Cl)CC2 — higher, 13.6%
- CCNc1nc(Cl)nc(-c2cn(-c3ccccc3)c3ccccc23)n1 — lower, 7.92%
- CC1CCCN(CCCN2C(=O)C3C(C(=O)Nc4ccc(Cl)cc4)C4C=CC3(O4)C2C(=O)NC2CCCCC2)C1 (centres unmarked) — lower, 7.24%
- CC1(C)Cc2c(c(-c3ccccc3)[nH]c(=O)c2C#N)CS1 — higher, 14.5%
- Cn1ccnc1C1CCCCN1Cc1nc(Cc2cccc(C(F)(F)F)c2)no1 (centres unmarked) — lower, 4.58%
- Oc1[nH]c(N=C2N=c3ccccc3=N2)c2ccccc12 — lower, 10.5%
- Nc1ccn([C@@H]2O[C@H](CO)[C@@H](O)[C@@H]2O)c(=O)n1 — lower, 1.86%
- Cc1ccc(-c2nn3nnnc3c3ccccc23)cc1C — lower, -5.22%
- Nc1cnn(Cc2ccccc2F)c1 — lower, 9.66%
- COc1ccc(-n2c(Cn3c(=O)sc4ccccc43)nnc2SCC(=O)N2CCCCC2)cc1 — lower, -0.0423%
- Cc1ccc(C)c(S(=O)(=O)N2C(=S)NC(=O)C2CC(C)C)c1 (centres unmarked) — lower, 5.95%
- Cc1ccc(C)c2c1N(Cc1ccccc1)C(=O)C21OCCO1 — lower, 11.9%
- CCOC(=O)C1=C(C)NC(C)=C(C(=O)OCC)C1C(=O)OC1CCOC1=O (centres unmarked) — higher, 14%
- COc1ccc(S(=O)(=O)N2CCN(c3ncnc4c(-c5ccccc5)nsc34)CC2)cc1 — lower, -10.3%
- Cc1cccc(N(CC(=O)N=Nc2c(O)[nH]c3ccccc23)S(C)(=O)=O)c1C — lower, -1.81%
- Cc1ccc(S(=O)(=O)N2CCN(C(=O)COC(=O)c3ccccc3Cl)CC2)c(C)c1 — lower, 3.09%
- O=C(O)CN1C(=O)CNC1=O — lower, 6.71%
- O=C1c2ccccc2S(=O)(=O)c2cc(C(=O)N3CCN(c4ccc(Cl)cn4)CC3)ccc21 — lower, -8.91%
- Cc1ccc(S(=O)(=O)N/N=C\c2ccc3c(c2)OCO3)cc1 — lower, 6.04%
- COC(=O)C1C(O)=CC(=O)CC1C (centres unmarked) — lower, 11.8%
- Cc1cn(C2OC(COC(=O)c3ccccc3)C(O)C2O)c(=O)[nH]c1=O (centres unmarked) — lower, 1.18%
- COCCCN1C(=O)c2ccc(C(=O)Nc3ccccc3Cl)cc2C1=O — lower, 11.4%
- Cc1nn(Cc2ccccc2Cl)c(C)c1NC(=O)Cn1nc([N+](=O)[O-])c(Cl)c1C — higher, 14%
- CC1CCN(S(=O)(=O)N2CCC(C(=O)NCc3cccnc3)CC2)CC1 — lower, -14.9%
- Nc1ccccc1Oc1ccc2ccccc2c1 — lower, 10.8%
- Cc1cc(C)n2nc(C(=O)OCC(=O)NNC(=O)c3ccccc3)nc2n1 — lower, 3.95%
- COc1ccc(S(=O)(=O)c2cnc3ccc(OC)cc3c2N2CCC3(CC2)OCCO3)cc1 — lower, 6.72%
- C=CCn1c(CSCc2ccc(Cl)cc2Cl)nnc1SCC(=O)Nc1ccc(C(=O)O)cc1 — lower, 13.3%
- CCOC(=O)c1cc(CC)sc1NC(=O)c1cccc(N2C(=O)CCC2=O)c1 — lower, -6.32%
- Nc1cc(C(F)(F)F)cc2c1SCC(=O)N2 — higher, 22.2%
- O=C(OCC(=O)N(C1CCCCC1)C1CCCCC1)c1ccc(O)cc1 — lower, 11.7%
- COc1ccc(/C=N/NC(=O)c2cc[n+]([O-])cc2)cc1O — lower, 9.9%
